Experimental findings from ChEMBL document CHEMBL1201862, “PubChem BioAssay data set” (2004) are described below.

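Method: 48-hour compound exposure of cells in 96-well plates, five concentrations, linear interpolation of endpoints. GI50 is the concentration that inhibits growth by half.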 Calls of active or inactive are those of the source. No stated cut-off is given here; in the data, active = GI50 up to about 1.1 µM and inactive = higher. Where only a bound is given, the exact number is not on record here.

The test system of this assay is NCI-H322M. In words: NCI tumour cell line growth inhibition, 48 h.
As for `CC12CCC(=O)C=C1CCC1C2CCC2(C)C(C(=O)Cn3cnc4c(=S)nc[nH]c43)CCC12` (stereo not given), the GI50 is inactive: 74 µM.
As for `Clc1ccccc1C(Nc1ncccn1)Nc1ncccn1`, the figure is inactive: > 100 µM.
With `O=C(O)/C=C\C(=O)Nc1ccc2c(c1)C(=O)c1cc(F)ccc1-2`, the GI50 was inactive: > 100 µM.
For the molecule `Brc1ccc2c(c1)C1(c3cc(Br)ccc3-2)c2cc(Br)ccc2-c2ccc(Br)cc21`, the GI50 is inactive: > 100 µM.
On to `N#Cc1nc(-c2ccccn2)c(-c2ccccn2)nc1C#N`, for which the GI50 was active: 0.519 µM.
On to `COc1cc(/C=C/C(=N\NS(=O)(=O)c2ccc(C)cc2)c2sc(NNC(C)=O)nc2C)ccc1O`, for which the GI50 was inactive: > 100 µM.
As for `O=C1C=C(Nc2cccnc2)c2ccccc2/C1=N/O`, the GI50 was inactive: 42.2 µM.
As for `Nc1ccc2nc(NCc3ccc(F)cc3)cnc2c1`, the figure is inactive: > 100 µM.
For the molecule `COc1ccc(C[n+]2cccc(O)c2)cc1`, the GI50 is inactive: > 100 µM.
On to `COc1ccc([C@@H]2CC(=O)NCCCNCCCCNCCCN2)cc1`, for which the GI50 is inactive: > 100 µM.
As for `OC(c1cc2ccccc2o1)c1cc2ccccc2s1` (stereo not given), the figure is inactive: > 10 µM; as for `C=CCCC(C)N(C(=O)OC(C)(C)C)S(=O)(=O)c1ccc(C)cc1` (stereo not given), inactive: > 100 µM.
As to `CC1CCC[P+](Cc2ccccc2)(c2ccccc2)CC1` (stereo not given), the GI50 is inactive: > 100 µM.
`c1ccc(CCn2cncn2)cc1`: the GI50 is inactive: > 100 µM.
Then `O=C1OC2(CCCCC2)C(Oc2ccc(Cl)cc2)=C1F`, with inactive: 56.9 µM; and `CN(C)c1ccc(/C=C2\N=C(c3ccccc3)N(c3nc4c(Cl)cc(Cl)cc4s3)C2=O)cc1`, with inactive: 82.4 µM.
On to `COc1ccc(C2CC(c3c(C)nn(-c4ccccc4)c3-c3ccc(C)cc3O)=NN2c2ccccc2)cc1` (stereo not given), for which the GI50 was inactive: > 100 µM.
In the case of `O=C(NNc1cn[nH]c(=O)c1Cl)/C(=C/c1ccc2c(c1)OCO2)NC(=O)c1ccccc1`, the GI50 was inactive: 97.7 µM.
As for `CCOP(=O)(OCC)c1cc(-c2ccccc2)ccc1N`, the figure is inactive: > 100 µM; as for `N=C(N)SCc1ccc(N=C=S)cc1`, inactive: 16.1 µM.
As for `O=[N+]([O-])c1ccc2c(c1)c(OCc1ccccc1)nn2Cc1ccccc1`, the figure is inactive: > 100 µM; as for `O=C(C/C(=N/O)C(=O)NC1=C(Cl)C(=O)c2ccccc2C1=O)CC(c1ccccc1)c1c(O)c2ccccc2oc1=O` (stereo not given), inactive: 18.4 µM; as for `C=CCc1c(O)c2nsnc2c2nsnc12`, inactive: 9.73 µM.
Then `C=C(C)[C@@]1(O[Si](C)(C)C)CCCC[C@@H]1CC(Sc1ccccc1)Sc1ccccc1`, with inactive: 17.2 µM; and `O=C1N[C@H]2c3c(Cl)sc(Cl)c3/C(=N/O)[C@H]2O1`, with inactive: > 100 µM; and `CC12CCC3c4cc(Br)c(O)c(Br)c4CCC3C1CCC2O` (stereo not given), with inactive: 15.5 µM.
As for `CC(C)(C)C1CCC2c3c([nH]c4ccccc34)C3C(=O)N(c4cccc([N+](=O)[O-])c4)C(=O)C3C2C1` (stereo not given), the GI50 is inactive: 21.9 µM.
With `O=C(c1ccccc1)N1CCC(CC2(c3cc4ccccc4[nH]3)OCCO2)CC1`, the GI50 is inactive: 50.2 µM.
As for `O=c1[nH]c2ccc(CC(=S)N3CCOCC3)cc2s1`, the figure is inactive: > 100 µM; as for `O=C(c1ccc(Cl)cc1)c1ccc(OCC(=O)N2CCN(c3ccccc3)CC2)cc1`, inactive: > 100 µM; as for `N#Cc1cc([N+](=O)[O-])ccc1NC(=O)C(=O)Nn1c(S)nc2ccccc2c1=O`, inactive: > 100 µM.
As for `Oc1nc(S)nc2c1C(c1ccc(Cl)cc1)c1c(O)nc(S)nc1O2`, the figure is inactive: > 100 µM; as for `O=C(C[C@@H]1CCCN2CCCC[C@H]12)N1c2ccccc2Sc2ccc(Cl)cc21`, inactive: 16.6 µM.
As for `Nc1nc(Nc2ccccc2)sc1C(=O)c1ccco1`, the figure is inactive: 16.9 µM.
Take `COc1cc(/C=C2/SC(c3ccccc3)N(c3cccc(NC(C)=O)c3)C2=O)cc(OC)c1OC` (stereo not given): the GI50 is inactive: > 100 µM.
For the molecule `CC1OC(n2cnc3c(N)nc(Cl)nc32)C(C)(O)C1O` (stereo not given), the GI50 was inactive: > 25 µM.
Then `CC[P+](C)(C)CC`, with inactive: > 100 µM.
As for `N#Cc1ccc(OCc2nc3cc(C(F)(F)F)ccc3nc2-c2ccccc2)cc1`, the figure is inactive: > 100 µM.
Then `O=C1CC(=O)NC(NN2C(=O)/C(=C/c3ccccc3)N=C2c2ccccc2)=N1`, with inactive: > 100 µM.
For `O=C1NCN(c2ccccc2)C12CCN(CCCN1CCN(CCOC(c3ccccc3)c3ccccc3)CC1)CC2`, the GI50 is inactive: 4.02 µM.
In the case of `Cc1cc2nc3c(C#N)c(-c4ccccc4)cc(Nc4cccc(C(F)(F)F)c4)n3c2cc1C`, the GI50 is inactive: 5.46 µM.
As for `O=C(NCCCNCCCNC(=O)c1cc(-c2ccccc2)nc2ccccc12)c1cc(-c2ccccc2)nc2ccccc12`, the figure is inactive: 2.25 µM; as for `CCCNC(=S)N/C=C1\C(=O)Nc2ccccc2C1=O`, inactive: > 100 µM; as for `CC(C)N(c1cc2c(cc1F)c(=O)c(C(=O)O)cn2-c1ccc(N2CCN(C)CC2)cn1)C(C)C`, inactive: > 100 µM.
As for `CC/C(=C\c1ccc(OC)cc1)c1ccc(OC)cc1`, the figure is inactive: > 100 µM.
In the case of `O=C1OCC=C1COC1OC(CO)C(O)C(O)C1O` (stereo not given), the GI50 was inactive: > 100 µM.
Then `COC(=O)C1=CSC2(S1)C(C(=O)OC)=CSc1c2ssc1=O` (stereo not given), with inactive: 5.82 µM; and `COc1nc2c(nc(N)n2C2OC(CO)C(O)C(O)C2O)c(=O)[nH]1` (stereo not given), with inactive: > 100 µM; and `CC1(C)C=CC(=O)C(O)C(C)(C)C1=O` (stereo not given), with inactive: > 100 µM.
Then `N#Cc1cccc(NC(=O)c2ccc(C(=O)O)c(C(=O)c3ccc(C(=O)O)c(C(=O)Nc4cccc(C#N)c4)c3)c2)c1`, with inactive: > 100 µM; and `Cc1cn(S(=O)(=O)c2ccccc2)c2c(OCc3ccccc3)cc(NC(=O)c3cc4cc([N+](=O)[O-])ccc4s3)cc12`, with inactive: > 100 µM; and `O=C(CCN1CCCCC1)C(=Cc1ccccc1)C(=O)CCN1CCCCC1`, with inactive: > 100 µM.
For `Brc1cccc(C2ON=C(c3ccccc3)N2C23CC4CC(CC(C4)C2)C3)c1` (stereo not given), the GI50 was inactive: > 10 µM.
Then `Nc1nc(N)c(N=O)c(Nc2ccc(Br)cc2)n1`, with inactive: 18.6 µM.
As to `O=C(c1ccco1)N(C(=O)N1CCCCC1)c1ccccc1`, the GI50 was inactive: > 100 µM.
As to `CCOCNC(=O)N(COCC)COCC`, the GI50 is inactive: > 100 µM.
As for `O=S1(=O)CCN(Cc2ccccc2)/C1=N\S(=O)(=O)c1ccc(Cl)cc1`, the figure is inactive: > 100 µM; as for `N/C(=N\N=C=C1C(=O)Nc2ccc(F)cc21)NO`, inactive: > 100 µM; as for `O=S(=O)(c1ccccc1)N1CCC1c1ccccc1` (stereo not given), inactive: > 100 µM.
As for `Cc1cccc(C)c1CO`, the figure is inactive: > 100 µM.
`CCCCCCCN1C(=O)C(O)(c2ccc(C3(O)C(=O)N(CCCCCCC)c4ccccc43)s2)c2ccccc21` (stereo not given): the GI50 is inactive: 2.26 µM.
As for `CCC(C)C(C(=O)N/N=C1/SCC(=O)N1C)C(=O)N/N=C1/SCC(=O)N1C` (stereo not given), the figure is inactive: > 100 µM.
Turning to `CC(C)(C)c1cc(-c2c3nc(c(-c4cc(C(C)(C)C)cc(C(C)(C)C)c4)c4ccc([nH]4)c(-c4cc(C(C)(C)C)cc(C(C)(C)C)c4)c4nc(c(-c5cc(C(C)(C)C)cc(C(C)(C)C)c5)c5ccc2[nH]5)C=C4)C=C3)cc(C(C)(C)C)c1`, the GI50 was inactive: > 100 µM.
Then `COc1cc2c(cc1O)-c1c(OC)c(O)cc3c1C(C2)N(C)CC3` (stereo not given), with inactive: > 100 µM; and `CCCCNC1CCC2(SCCS2)c2[nH]c3ccccc3c21` (stereo not given), with inactive: 71.8 µM.
With `Cc1cnc2cc(Cl)ccc2c1NCCN(CC(C)C)CC(C)C`, the GI50 was inactive: > 100 µM.
Then `Nc1ccn(C2OC(CO[PH](=O)OC3C(CO[PH](=O)OC4C(CO[PH](=O)OC5C(CO[PH](=O)OC6C(CO[PH](=O)OC7C(CO[PH](=O)OC8C(CO[PH](=O)OC9C(CO[PH](=O)OC%10C(CO[PH](=O)OC%11C(CO)OC(n%12ccc(N)nc%12=O)C%11(F)F)OC(n%11ccc(N)nc%11=O)C%10(F)F)OC(n%10ccc(N)nc%10=O)C9(F)F)OC(n9ccc(N)nc9=O)C8(F)F)OC(n8ccc(N)nc8=O)C7(F)F)OC(n7ccc(N)nc7=O)C6(F)F)OC(n6ccc(N)nc6=O)C5(F)F)OC(n5ccc(N)nc5=O)C4(F)F)OC(n4ccc(N)nc4=O)C3(F)F)C(O)C2(F)F)c(=O)n1` (stereo not given), with inactive: 5.14 µM.
With `O=c1cc(CN2CCCCC2)nc2ccc3c(O)cc(CN4CCCCC4)nc3n12`, the GI50 is inactive: > 100 µM.
As for `Cc1ccc(/N=C2\N=C(N3CC(C)OC(C)C3)c3ccccc32)cc1` (stereo not given), the GI50 was inactive: 23.2 µM.
Regarding `COc1ccc(CNc2cnc3ccc(N)cc3n2)cc1OC`, the GI50 was inactive: > 100 µM.
As for `CCN(CC)c1ccc(/N=N/c2ccc(-c3nc4cccn(C)c-4n3)cc2)cc1`, the figure is inactive: 13.3 µM; as for `Nc1nc(Cl)c(N)c(NCC2(CO)CCCC2)n1`, inactive: > 100 µM.
`COc1ccc(CCNC(=S)NC=C2C(=O)c3ccccc3C2=O)cc1OC`: the GI50 is inactive: > 100 µM.
Then `CCOC(=O)C(=O)Nc1ccccc1OCC`, with inactive: > 100 µM.
Regarding `O=C(c1ccccc1)n1c2ccc(Br)cc2c2nc3ccccc3nc21`, the GI50 is inactive: > 100 µM.
As for `COc1ccc(/C=C(/C)[N+](=O)[O-])cc1`, the figure is inactive: 3.75 µM; as for `CC(C)(C)[Si](C)(C)O/N=C\c1cccc(O[Si](C)(C)C(C)(C)C)c1`, inactive: 16.1 µM; as for `Nc1c(C(=O)c2ccccc2)nnc2ccccc12`, inactive: 35.8 µM.
As for `N#C[BH2-][n+]1cn(C2CC(O)C(COP(=O)(O)OC3CC(n4cnc5c(N)ncnc54)OC3CO)O2)c2nc(N)[nH]c(=O)c21` (stereo not given), the figure is inactive: > 100 µM; as for `Nc1nc(=O)n([C@@H]2CC[C@H](CO)O2)cc1F`, inactive: > 100 µM.
